Assay results from PubChem BioAssay AID1347073 (National Center for Advancing Translational Sciences (NCATS), 2019).
About 200 (0.44%) of roughly 45,000 compounds were called active. Another 7% or so got no clear call; they are omitted. The call rests on the fitted dose curve; in most records, active means well fitted activation curve with a large enough effect; inconclusive means small, poorly fitted or top-dose-only effect; inactive means no such curve, though single readings can be large or run the other way. This is one part of the list.

assay: qHTS of TDP-43 Inhibitors: NCGC Sytravon Library Screen; conditions: yeast TDP-43 toxicity rescue, BacTiter-Glo growth, 24 h; series mostly up to 46.1 µM; growth rescue (activation): at the top concentration; further: 0% is about no effect; nearly all actives have a fitted effect of over 55% in size
In short: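 TDP-43-expressing yeast, pregrown in raffinose, seeded at OD600 0.02 in galactose medium with compound for 24 hr at 30 deg C. Growth read by BacTiter-Glo luminescence, so rescue of toxicity appears as activation.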

Structure (SMILES)	growth rescue (activation)
O=C(Nc1cccc(NC(=O)c2ccco2)c1)c1ccc2c(c1)OCCO2	inactive: 7.64%
CCc1nc2ccc(C(=O)N3CCN(S(=O)(=O)CC)CC3)cn2c1N(C)C(=O)C1CCCCC1	inactive: -5.79%
COc1ccc(Cl)cc1-c1cc(C(=O)Nc2ccc(C(C)(C)C)cc2)[nH]n1	inactive: 14.6%
COCc1cc(C)nc(SCc2nc3ccccc3c(=O)[nH]2)c1C#N	inactive: 13.3%
CCN(CC)S(=O)(=O)c1ccc(S(=O)(=O)N2CCC(N3CCCCC3)CC2)cc1	inactive: -0.0384%
Cc1ccc2nsnc2c1NC(=O)c1cncc(Br)c1	inactive: -6.5%
O=C(c1ccc([N+](=O)[O-])s1)N1CCc2ccccc21	inactive: 27.8%
NC(=O)c1c(NC(=O)c2cccnc2)sc2c1CCCC2	inactive: 8.09%
Cc1ccc(-c2[nH]ncc2/C=N/n2c(COc3ccccc3)nc3ccccc3c2=O)cc1	inactive: 10.7%
O=C(O)CCC(=O)N1CCN(c2nc(-c3ccccc3Cl)c3cc(Br)ccc3n2)CC1	inactive: -16.9%
CC(C)Oc1ccccc1OCCCOc1cccc2cccnc12	inactive: 10.9%
COC(=O)CSc1[nH]c(=O)cc(C)c1C#N	inactive: -3.53%
CCC(Oc1ccccc1F)C(=O)NCCN1CCOCC1 (stereo not drawn)	inactive: 0.028%
CC(C)c1ccc(CCNC(=O)c2ccc([N+](=O)[O-])cc2)cc1	inactive: 4.31%
O=C(O)COc1c(-c2ccco2)oc2ccccc2c1=O	inactive: 0.0801%
Cc1ccc(NC(N)=S)cc1C	inactive: 9%
CSc1ccc(CN2CCC2(C)C(=O)Nc2ccc3c(c2)OCO3)cc1 (stereo not drawn)	inactive: 2.09%
CC(NC(=O)c1ccc(Cl)cc1)c1nnc(SCC(=O)NC2=NCCS2)n1C (stereo not drawn)	inactive: -30%
Cc1csc(NC(=O)CSc2sc3c(O)cc(=O)[nH]c3c2C#N)n1	inactive: 4.82%
O=C1NCCCc2nc(Oc3ccccc3)sc21	inactive: 5.48%
CCC(C)(C)NC(=O)C(c1ccc(OC)cc1)N(Cc1ccccc1)C(=O)CCC(=O)Nc1cc(C)on1 (stereo not drawn)	inactive: 10.5%
O=[N+]([O-])c1ccccc1-n1cnc2ccccc21	inactive: -13.2%
O=c1[nH]c(-c2ccc(F)cc2)nc2c1sc(=S)n2-c1ccccc1	inactive: 7.03%

Structure (SMILES)	growth rescue (activation)
O=C(Nc1nccs1)[C@@H]1CCCN1S(=O)(=O)c1ccccc1F	inactive: 15.2%
Cc1nc(CN2CCN(C(=O)CCc3nnc(Cc4c[nH]c5ccccc45)o3)CC2)cs1	inactive: 5.06%
CC1=NN(c2ccccc2)C(=O)/C1=C/c1cccc(C)c1	inactive: -6.17%
Cc1cccc(C(=O)OCc2cncs2)c1	inactive: 17%
COc1cc2nc(CN3CCN(S(=O)(=O)c4ccccc4C(F)(F)F)CC3)[nH]c(=O)c2cc1OC	inactive: -3.12%
CCOC(=O)c1c(C(F)(F)F)cc(-c2ccc(F)cc2)nc1C	inactive: -0.91%
COc1cc(C)ccc1S(=O)(=O)NC(=O)C1(C)CCN1C(=O)Cc1ccc(C(C)(C)C)cc1 (stereo not drawn)	inactive: 11.7%
O=C(COC(=O)C1(c2ccc(Cl)cc2)CCCC1)N1CCc2ccccc21	inactive: -21.6%
Cn1c(SC/C=C/c2ccccc2)nnc1-c1cnccn1	inactive: -9.28%
NS(=O)(=O)c1ccc(CNC(=O)/C=C/c2cccc(Cl)c2)cc1	inactive: 24.3%
O=C(CN(Cc1ccc(F)cc1)C(=O)CNS(=O)(=O)c1ccc(F)cc1)NCc1ccco1	inactive: 7.63%
COc1ccc(N2C(=O)C3C(C2=O)C2C=CC3C23CC3)c([N+](=O)[O-])c1 (stereo not drawn)	inactive: 29.6%
Cc1cccc(-c2cc(N3CCCN(C)CC3)n3nccc3n2)c1	inactive: -3.18%
CCN(CC(=O)NCc1ccc(Cl)cc1)C(=O)/C=C/c1ccccc1	inactive: 0.341%
CCOC(=O)COc1ncn(-c2ccccc2)n1	inactive: -4.79%
Clc1ccc(-n2nnnc2CN2CCOCC2)cc1Cl	inactive: 17.2%
CC(C)C(=O)N1CCN(c2ccccc2NC(=O)c2ccc3c(c2)OCCO3)CC1	inactive: -2.65%
O=C(N/C(=C\c1ccco1)C(=O)N1CCCC1CO)c1ccccc1 (stereo not drawn)	inactive: -8.14%
COc1cccc(CN2CCNC(=O)C2CC(=O)N(C)CCC2CCOCC2)c1OC (stereo not drawn)	inactive: 5.25%
O=C(COC(=O)C1CCCC1)NCc1ccc(Cl)cc1	inactive: 1.66%
CCOc1ccc(NC(=O)CN(C)C(=O)c2cc(C3CC3)nn2-c2ccccc2)cc1OCC	inactive: 0.974%
COc1cc(NS(=O)(=O)c2ccc(NC(=O)c3ccc(Cl)cc3Cl)cc2)ncn1	inactive: 0.532%
COc1ccc(C)cc1NC(=O)C(OC(=O)c1cc(C)oc1C)c1ccccc1 (stereo not drawn)	inactive: -24.9%

Structure (SMILES)	growth rescue (activation)
O=c1oc2ccccc2c(O)c1/C=N/c1ccccn1	inactive: -0.482%
CCc1nc2c(OCCOC)cccn2c1N(C)C(=O)c1ccco1	inactive: -0.957%
C/C=C/c1ccc(OCCOc2ccc(C=O)cc2)c(OC)c1	inactive: 18.6%
CC1(C)Oc2ccc(C(=O)NNC(=O)Nc3ccccc3)cc2NC1=O	inactive: -7.92%
COc1ccc(/C=C2\SC(=O)N(CC(=O)NN3CCN(C)CC3)C2=O)cc1OC	inactive: -14.8%
Cn1c(N)c(-c2ccccc2)c2ccc([N+](=O)[O-])cc2c1=O	inactive: 16.6%
COc1ccccc1N(CC(O)CN1CCCCC1)S(=O)(=O)c1ccc(C)cc1 (stereo not drawn)	inactive: 17.6%
CN(C)C(CNC(=S)Nc1ccc(Cl)cc1)c1cccnc1 (stereo not drawn)	inactive: -11.6%
C=C(C)[C@@H]1CC=C(CN2CCC(CCOC)(C(=O)OCC)CC2)CC1	inactive: 1.81%
CC(=O)OC1OCCOC1NC(=S)Nc1ccc(C)cc1 (stereo not drawn)	inactive: -7.97%
COc1ccc(CNC(=O)N2CCN(S(=O)(=O)c3ccc(C)cc3C)CC2)cc1	inactive: 25.5%
COc1ccc(N(C(=O)c2snc(C(N)=O)c2N)C(C(=O)NC2CCCC2)c2ccc(C)o2)c(OC)c1 (stereo not drawn)	inactive: 10.2%
COc1ccc(N(CC(=O)NC2CCCCC2)C(=O)CNC(=O)c2cccs2)cc1OC	inactive: 9.42%
COc1cc(Cl)ccc1OC1(C)CCN(Cc2ccccc2OC(F)F)C1 (stereo not drawn)	inactive: -5.03%
Cc1nnc(SCC(=O)NNC(=O)c2ccc(F)cc2)n1Cc1ccccc1	inactive: -12.3%
O=[N+]([O-])c1cc(S(=O)(=O)N2CCOCC2)ccc1OCc1ccccc1C(F)(F)F	inactive: 14.7%
COc1ccc(CC(C#N)(CO)c2nc3ccccc3[nH]2)cc1 (stereo not drawn)	inactive: -3.4%
COC(=O)c1ccccc1NCC(=O)c1ccc(OC)cc1	inactive: 12.9%
CC(C)NC(=O)CN1CCN(Cc2nc(-c3cccs3)no2)CC1	inactive: -11.8%
COc1ccc(S(=O)(=O)N2CCC(C(=O)NCc3cccnc3)CC2)cc1C	inactive: -2.47%
COc1ccc(C(=O)N2CCN(Cc3ccc(OC)c(OC)c3)CC2)cc1	inactive: 5.17%
CCC/C=N/Nc1nnc(Cc2ccc(OC)c(OC)c2)c(=O)[nH]1	inactive: 0.389%
